153 variants from a collection of fitness landscapes (doi:10.1016/j.celrep.2020.107928) can be followed below.

Whole data set: some 81,000 sequences, median “one-hybrid fitness for binding NBS DNA” near -0.1, cut for the highest 2% near 0.36. The list shows a part of the results.

B1: Caulobacter ParB omega fusion; a variant is named by its letters at X, in order, B8GW30 (parent)
chain: MESVVVGEPGMSEGRRGLGRGLSALLGEVDAAPAQAPGEQLGGSREAPIEILQRNPDQPRRTFREEDLEDLSNSIREKGVLQPILVRPSPDTAGEYQIVAGERAWRAAQRAGLKTVPIMVRELDDLAVLEIGIIENVQRADLNVLEEALSYKVLMEKFERTQENIAQTIGKSXSHVANXMRLLXLPDEVQSYLVSGELTAXHARAIAAAADPVALAKQIIEGGLSVRETEALARKAPNLSAGKSKGGRPPRVKDTDTQALESDLSSVLGLDVSIDHRGSTGTLTITYATLEQLDDLCNRLTRGI

In this assay the parent is B1. Kind of assay: one-hybrid fitness for binding NBS DNA (the Noc-binding site; scaled: cognate 1, non-cognate 0); higher = stronger binding. The following applies: with NBS DNA site. The method, boiled down: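 The reporter was HIS3, with the binding site 19 bp from the promoter, in E. coli USO used for bacterial one-hybrid selection of Caulobacter ParB libraries with four specificity codons randomised. Growth was on M9 lacking histidine, with 0.1 mM IPTG and 5 mM 3-AT, for 48 hours at 37°C. Illumina sequencing covered plasmids before and after selection; three replicate libraries were pooled and variants with under 10 reads dropped. A fitness score is the log change in variant-to-wild-type read ratio, rescaled to the cognate and non-cognate references.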
Consider TARL, for which the “one-hybrid fitness for binding NBS DNA” value was ≤ 0.2.
For RFSG, the “one-hybrid fitness for binding NBS DNA” value was ≤ 0.2.
In the case of QRTH, the “one-hybrid fitness for binding NBS DNA” value was determined as 0.57.
Regarding EVWI, the “one-hybrid fitness for binding NBS DNA” value is ≤ 0.2.
Under MKYS stands ≤ 0.2; under ERGS, ≤ 0.2; under RHLY, ≤ 0.2.
On to MGKP, for which the “one-hybrid fitness for binding NBS DNA” value is ≤ 0.2.
On to EGLR, for which the “one-hybrid fitness for binding NBS DNA” value was ≤ 0.2.
Under YYND stands ≤ 0.2; under MENT, ≤ 0.2; under LYKT, ≤ 0.2.
For QCED the value was ≤ 0.2.
Under NEVR stands ≤ 0.2.
For QSRI, the “one-hybrid fitness for binding NBS DNA” value amounted to 0.338.
With GDTS, the “one-hybrid fitness for binding NBS DNA” value is ≤ 0.2.
Consider QMQR, for which the “one-hybrid fitness for binding NBS DNA” value came out at 0.55.
As for HVGG, the “one-hybrid fitness for binding NBS DNA” value is ≤ 0.2.
As for RKQQ, the “one-hybrid fitness for binding NBS DNA” value was ≤ 0.2.
As for IMGG, the “one-hybrid fitness for binding NBS DNA” value is ≤ 0.2.
For the variant WSNG, the “one-hybrid fitness for binding NBS DNA” value was ≤ 0.2.
Take TWAL: the “one-hybrid fitness for binding NBS DNA” value was ≤ 0.2.
GDEL: the “one-hybrid fitness for binding NBS DNA” value is ≤ 0.2.
Regarding RVKE, the “one-hybrid fitness for binding NBS DNA” value is ≤ 0.2.
For the variant TRRY, the “one-hybrid fitness for binding NBS DNA” value is 0.254.
For TTNT the value was ≤ 0.2; for KHGY, ≤ 0.2.
Take YLFW: the “one-hybrid fitness for binding NBS DNA” value was ≤ 0.2.
In the case of RVGN, the “one-hybrid fitness for binding NBS DNA” value is ≤ 0.2.
Take AYVS: the “one-hybrid fitness for binding NBS DNA” value is ≤ 0.2.
Regarding SRKD, the “one-hybrid fitness for binding NBS DNA” value is ≤ 0.2.
Under KRKQ stands 0.266; under IISN, ≤ 0.2; under PCHV, ≤ 0.2.
As for AAQF, the “one-hybrid fitness for binding NBS DNA” value was ≤ 0.2.
Under RACW stands ≤ 0.2; under NLRI, ≤ 0.2.
Under PSLS stands ≤ 0.2.
For PMRW the value was ≤ 0.2; for EAYS, ≤ 0.2.
As for FVHN, the “one-hybrid fitness for binding NBS DNA” value is ≤ 0.2.
As for IAKG, the “one-hybrid fitness for binding NBS DNA” value is ≤ 0.2.
For KVLL the value was ≤ 0.2.
As to CVET, the “one-hybrid fitness for binding NBS DNA” value was ≤ 0.2.
As to QFAE, the “one-hybrid fitness for binding NBS DNA” value was ≤ 0.2.
On to TMHC, for which the “one-hybrid fitness for binding NBS DNA” value is ≤ 0.2.
With ELEL, the “one-hybrid fitness for binding NBS DNA” value was ≤ 0.2.
In the case of LINT, the “one-hybrid fitness for binding NBS DNA” value was ≤ 0.2.
RYGL: the “one-hybrid fitness for binding NBS DNA” value is ≤ 0.2.
HAPI: the “one-hybrid fitness for binding NBS DNA” value was ≤ 0.2.
Take KEIA: the “one-hybrid fitness for binding NBS DNA” value is ≤ 0.2.
Turning to SLSW, the “one-hybrid fitness for binding NBS DNA” value is ≤ 0.2.
For RCHR the value was 0.586; for VFKS, ≤ 0.2; for HPCK, ≤ 0.2.
As to AVNH, the “one-hybrid fitness for binding NBS DNA” value was ≤ 0.2.
With QVMS, the “one-hybrid fitness for binding NBS DNA” value is ≤ 0.2.
Regarding DTTC, the “one-hybrid fitness for binding NBS DNA” value was ≤ 0.2.
TPFR: the “one-hybrid fitness for binding NBS DNA” value was ≤ 0.2.
As to HGAG, the “one-hybrid fitness for binding NBS DNA” value was ≤ 0.2.
Under VLHT stands ≤ 0.2; under TAQP, ≤ 0.2; under SADW, ≤ 0.2.
Regarding KIAC, the “one-hybrid fitness for binding NBS DNA” value is ≤ 0.2.
For DPTA the value was ≤ 0.2; for PWGT, ≤ 0.2; for EVFT, ≤ 0.2.
As to IPHG, the “one-hybrid fitness for binding NBS DNA” value was ≤ 0.2.
Under HAFN stands ≤ 0.2.
In the case of NTHS, the “one-hybrid fitness for binding NBS DNA” value is ≤ 0.2.
Turning to SVSS, the “one-hybrid fitness for binding NBS DNA” value is ≤ 0.2.
Consider NVND, for which the “one-hybrid fitness for binding NBS DNA” value is ≤ 0.2.
Consider YMQT, for which the “one-hybrid fitness for binding NBS DNA” value is ≤ 0.2.
On to RNCD, for which the “one-hybrid fitness for binding NBS DNA” value is ≤ 0.2.
In the case of QLLI, the “one-hybrid fitness for binding NBS DNA” value was ≤ 0.2.
On to LRCW, for which the “one-hybrid fitness for binding NBS DNA” value was ≤ 0.2.
On to VDHR, for which the “one-hybrid fitness for binding NBS DNA” value is ≤ 0.2.
For the variant GNTQ, the “one-hybrid fitness for binding NBS DNA” value was ≤ 0.2.
For HDKR the value was ≤ 0.2.
Regarding RLHP, the “one-hybrid fitness for binding NBS DNA” value is ≤ 0.2.
Turning to HVVE, the “one-hybrid fitness for binding NBS DNA” value is ≤ 0.2.
In the case of DNRT, the “one-hybrid fitness for binding NBS DNA” value was ≤ 0.2.
Turning to TGGR, the “one-hybrid fitness for binding NBS DNA” value is ≤ 0.2.
As to TIWG, the “one-hybrid fitness for binding NBS DNA” value is ≤ 0.2.
HQSR: the “one-hybrid fitness for binding NBS DNA” value is ≤ 0.2.
RVHS: the “one-hybrid fitness for binding NBS DNA” value is 0.461.
Regarding SKPM, the “one-hybrid fitness for binding NBS DNA” value was ≤ 0.2.
As to VTMW, the “one-hybrid fitness for binding NBS DNA” value is ≤ 0.2.
Consider YSVV, for which the “one-hybrid fitness for binding NBS DNA” value was ≤ 0.2.
Take KCSD: the “one-hybrid fitness for binding NBS DNA” value is ≤ 0.2.
For the variant HRHS, the “one-hybrid fitness for binding NBS DNA” value was ≤ 0.2.
Take TGID: the “one-hybrid fitness for binding NBS DNA” value is ≤ 0.2.
Turning to MGLM, the “one-hybrid fitness for binding NBS DNA” value was ≤ 0.2.
HQLL: the “one-hybrid fitness for binding NBS DNA” value was ≤ 0.2.
For DPAM the value was ≤ 0.2.
As to QHKG, the “one-hybrid fitness for binding NBS DNA” value is 0.345.
HEHR: the “one-hybrid fitness for binding NBS DNA” value is ≤ 0.2.
With RLLM, the “one-hybrid fitness for binding NBS DNA” value was ≤ 0.2.
Regarding TLFV, the “one-hybrid fitness for binding NBS DNA” value is ≤ 0.2.
For SINQ the value was ≤ 0.2; for DNQE, ≤ 0.2; for ILTM, ≤ 0.2.
For TRYM, the “one-hybrid fitness for binding NBS DNA” value was ≤ 0.2.
For QAHC the value was ≤ 0.2; for APHC, ≤ 0.2; for FQDG, ≤ 0.2.
RSSD: the “one-hybrid fitness for binding NBS DNA” value was ≤ 0.2.
For CGTN, the “one-hybrid fitness for binding NBS DNA” value is ≤ 0.2.
RKNA: the “one-hybrid fitness for binding NBS DNA” value was 0.341.
Take VATK: the “one-hybrid fitness for binding NBS DNA” value was ≤ 0.2.
Turning to HISM, the “one-hybrid fitness for binding NBS DNA” value was ≤ 0.2.
In the case of RNAR, the “one-hybrid fitness for binding NBS DNA” value came out at 0.221.
Consider NVTM, for which the “one-hybrid fitness for binding NBS DNA” value is ≤ 0.2.
For VNRM the value was ≤ 0.2.
PGCR: the “one-hybrid fitness for binding NBS DNA” value was ≤ 0.2.
In the case of LYKH, the “one-hybrid fitness for binding NBS DNA” value is ≤ 0.2.
Turning to LPVS, the “one-hybrid fitness for binding NBS DNA” value was ≤ 0.2.
For IVEA, the “one-hybrid fitness for binding NBS DNA” value is ≤ 0.2.
Under KRWG stands ≤ 0.2; under QSVF, ≤ 0.2.
As to RSMD, the “one-hybrid fitness for binding NBS DNA” value was ≤ 0.2.
As to HQYT, the “one-hybrid fitness for binding NBS DNA” value was ≤ 0.2.
Consider EATE, for which the “one-hybrid fitness for binding NBS DNA” value is ≤ 0.2.
Regarding WWTD, the “one-hybrid fitness for binding NBS DNA” value was ≤ 0.2.
On to WLQR, for which the “one-hybrid fitness for binding NBS DNA” value is ≤ 0.2.
Under VRKF stands ≤ 0.2.
As to TPTD, the “one-hybrid fitness for binding NBS DNA” value is ≤ 0.2.
Consider IAIS, for which the “one-hybrid fitness for binding NBS DNA” value is ≤ 0.2.
Take PHYS: the “one-hybrid fitness for binding NBS DNA” value is ≤ 0.2.
KPSF: the “one-hybrid fitness for binding NBS DNA” value was ≤ 0.2.
Under WIGT stands ≤ 0.2.
Regarding KYKR, the “one-hybrid fitness for binding NBS DNA” value came out at 0.414.
For TRHN the value was ≤ 0.2.
In the case of PMDY, the “one-hybrid fitness for binding NBS DNA” value was ≤ 0.2.
Regarding GYSA, the “one-hybrid fitness for binding NBS DNA” value is ≤ 0.2.
For TNDH the value was ≤ 0.2; for LYPR, ≤ 0.2; for LRCL, ≤ 0.2.
For KRKD the value was ≤ 0.2; for PDPK, ≤ 0.2; for KQEY, ≤ 0.2.
Consider RRGY, for which the “one-hybrid fitness for binding NBS DNA” value was 0.36.
Turning to YFNT, the “one-hybrid fitness for binding NBS DNA” value was ≤ 0.2.
As to MNTW, the “one-hybrid fitness for binding NBS DNA” value was ≤ 0.2.
With GMGS, the “one-hybrid fitness for binding NBS DNA” value is ≤ 0.2.
Turning to ICRL, the “one-hybrid fitness for binding NBS DNA” value was ≤ 0.2.
As to IIPF, the “one-hybrid fitness for binding NBS DNA” value was ≤ 0.2.
Consider KSAR, for which the “one-hybrid fitness for binding NBS DNA” value was ≤ 0.2.
In the case of HPMP, the “one-hybrid fitness for binding NBS DNA” value was ≤ 0.2.
KWIR: the “one-hybrid fitness for binding NBS DNA” value was ≤ 0.2.
In the case of KMHG, the “one-hybrid fitness for binding NBS DNA” value was ≤ 0.2.
As to HFLY, the “one-hybrid fitness for binding NBS DNA” value is ≤ 0.2.
Under VFTI stands ≤ 0.2.
